From the supplement of paper PMC4604168 (melanoma cell lines)
Some of the results follow. Many values rest on one well or one pass, so single values are uncertain.

What follows are compounds tested on WM1716 (assay: cell count relative to DMSO control; melanoma cells; higher = more viable cells). Conditions: library dose: low library concentration; 72 h.
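Further: cell number obtained by counting DAPI-stained nuclei in high-throughput microscope images with image analysis software, screen run in 1,536-well plates.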

Compound	cell count
C=CCn1c(=O)c2cnc(Nc3ccc(N4CCN(C)CC4)cc3)nc2n1-c1cccc(C(C)(C)O)n1 + COc1cc2c(Oc3ccc4[nH]c(C)cc4c3F)ncnc2cc1OCCCN1CCCC1 [cediranib] (first compound 0.02 µM, partner dose 0.4 µM)	103%
CO[C@@H]1[C@H](N(C)C(=O)c2ccccc2)C[C@H]2O[C@]1(C)n1c3ccccc3c3c4c(c5c6ccccc6n2c5c31)C(=O)NC4 [Midostaurin] + O=C(O)c1ccc(-c2c[nH]c3ncc(-c4ccccc4)cc23)cc1C1CCCC1 [GSK650394] (first compound 0.08 µM, partner dose 0.16 µM)	84.8%
C=CCn1c(=O)c2cnc(Nc3ccc(N4CCN(C)CC4)cc3)nc2n1-c1cccc(C(C)(C)O)n1 + Cc1ccc(NC(=O)c2cccc(N(C)C)c2)cc1NC(=O)c1ccc(O)cc1 [ZM336372] (first compound 0.02 µM, partner dose 2 µM)	93%
CO[C@@H]1[C@H](N(C)C(=O)c2ccccc2)C[C@H]2O[C@]1(C)n1c3ccccc3c3c4c(c5c6ccccc6n2c5c31)C(=O)NC4 [Midostaurin] + CN(C)S(=O)(=O)c1ccc2c(c1)/C(=C/c1cc3c([nH]1)CCCC3)C(=O)N2 [SU6656] (first compound 0.08 µM, partner dose 0.4 µM)	77%
NC(=O)Nc1cc(-c2cccc(F)c2)sc1C(=O)N[C@H]1CCCNC1 + Oc1cc(-c2nc(-c3ccccc3)[nH]c2-c2ccncc2)ccc1Cl [L779450] (first compound 0.02 µM, partner dose 0.2 µM)	94.6%

What follows are compounds tested on WM1745 in the same assay as above. Conditions: library dose: low library concentration; 72 h.

Compound	cell count
CN(C)S(=O)(=O)c1ccc2c(c1)/C(=C/c1cc3c([nH]1)CCCC3)C(=O)N2 + O=C(O)c1ccc(-c2c[nH]c3ncc(-c4ccccc4)cc23)cc1C1CCCC1 [GSK650394] (first compound 0.4 µM, partner dose 0.16 µM)	101%
CO[C@@H]1[C@H](N(C)C(=O)c2ccccc2)C[C@H]2O[C@]1(C)n1c3ccccc3c3c4c(c5c6ccccc6n2c5c31)C(=O)NC4 [Midostaurin] + O=C(Nc1cccc(Cl)c1)Nc1ncc(CCNc2ncnc3ccsc23)s1 [SNS314] (first compound 0.08 µM, partner dose 0.0008 µM)	40.5%
C=CCn1c(=O)c2cnc(Nc3ccc(N4CCN(C)CC4)cc3)nc2n1-c1cccc(C(C)(C)O)n1 + OCCn1cc(-c2cnc3nnn(Cc4ccc5ncccc5c4)c3n2)cn1 [PF04217903] (first compound 0.02 µM, partner dose 1 µM)	67.9%
C[C@]1(c2nc3c(C(N)=O)cccc3[nH]2)CCCN1 [Veliparib] + COc1ccc2c(c1)CCC1C2CCC2(C)C(NCCCCCCN3C(=O)C=CC3=O)CCC12 [U73122] (first compound 1.4 µM, partner dose 0.4 µM)	78.6%
CO[C@@H]1[C@H](N(C)C(=O)c2ccccc2)C[C@H]2O[C@]1(C)n1c3ccccc3c3c4c(c5c6ccccc6n2c5c31)C(=O)NC4 [Midostaurin] + Cc1cc([N+](=O)[O-])ccc1NS(=O)(=O)c1cc(Cl)ccc1Cl [FH535] (first compound 0.08 µM, partner dose 1 µM)	75.8%
NC(=O)Nc1cc(-c2cccc(F)c2)sc1C(=O)N[C@H]1CCCNC1 + CCCCCCCCCCCC1=C(O)C(=O)C=C(O)C1=O [Embelin] (first compound 0.02 µM, partner dose 1.2 µM)	95.6%
CO[C@@H]1[C@H](N(C)C(=O)c2ccccc2)C[C@H]2O[C@]1(C)n1c3ccccc3c3c4c(c5c6ccccc6n2c5c31)C(=O)NC4 [Midostaurin] + CCN(CC)CCCCNc1ncc2cc(-c3cc(OC)cc(OC)c3)c(NC(=O)NC(C)(C)C)nc2n1 [PD173074] (first compound 0.08 µM, partner dose 0.1 µM)	99.7%
CO[C@@H]1[C@H](N(C)C(=O)c2ccccc2)C[C@H]2O[C@]1(C)n1c3ccccc3c3c4c(c5c6ccccc6n2c5c31)C(=O)NC4 [Midostaurin] + Cn1cncc1[C@@](N)(c1ccc(Cl)cc1)c1ccc2c(c1)c(-c1cccc(Cl)c1)cc(=O)n2C [tipifarnib] (first compound 0.08 µM, partner dose 0.01 µM)	87.5%
